Each structure is given as a SMILES string. The list shows a part of the results. Further columns of the screen follow, without active or inactive calls. Most of these compounds were active or inconclusive in the main read-out, so they are no random draw. Potencies come from curve fits of mixed quality, noted in brackets. Square brackets hold non-standard residues; d marks the D form. Peptide text beside a SMILES is read from it.

Drawing on PubChem BioAssay (NCATS), this text covers max response and AC50 for 37 compounds.

This test in a line: qHTS Assay for Lipid Storage Modulators (AID 1519). To be noted: Drosophila S3 cells, BODIPY lipid droplet/cell ratio, laser cytometry, cells loaded with oleic acid. An outline of the steps:
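Cells seeded at 5,000 per well were treated with compounds over a concentration series and loaded with oleic acid (400 uM, as added). Lipid droplet fluorescence (488 nm excitation, 500-530 nm channel) was read by laser-scanning cytometry and normalized to 20 uM Triacsin C.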

Where [1] appears, read: measured here: cell count channel max response.
The mark [2] stands for this setting: measured here: cell number channel AC50.
The mark [3] stands for this setting: measured here: lipid (BODIPY) channel AC50.
The mark [4] stands for this setting: measured here: lipid channel max response.
Tags give direction and shape of the fitted curve.

For `CN(C)Cc1ccccc1-c1ccc2ncnc(N(C)C)c2c1`, the max response under setting [1] came to 30.5% and the max response under setting [4] was determined as 42.2%. The half-maximal activity concentration (AC50) is, setting by setting: under setting [2], 10 µM [rising, partial curve]; under setting [3], 7.94 µM [rising, partial curve, poor fit].

With `Cc1cnc(CNc2ccnc(-c3cccc(C#N)c3)n2)cn1`, the max response reads like this: under setting [1], 40.5%; under setting [4], 48.1%. The concentration at half-maximal activity (AC50) is 1.41 µM [rising, full curve] under setting [2] and 1.41 µM [rising, full curve] under setting [3].

Consider `COC1=CC(=O)C=C(OC)C1=O`, for which the max response by setting is: under setting [1], -66.9%; under setting [4], -84%. The AC50 under setting [2] is 28.2 µM [falling, partial curve] and the concentration at half-maximal activity (AC50) under setting [3] was 28.2 µM [falling, partial curve].

With `COc1ccc(-n2c(=O)c(-c3ccccc3)nc3cncnc32)cc1`, the max response under setting [1] was found to be 28.6% and the max response under setting [4] amounted to 35.8%. Moreover, the concentration at half-maximal activity (AC50) reads like this: under setting [2], 0.562 µM [rising, full curve, poor fit]; under setting [3], 0.501 µM [rising, full curve].

Turning to `CN(C)C(=O)c1ccc(-c2ccc3ncnc(N(C)Cc4ccco4)c3c2)cc1`, the max response runs as follows: under setting [1], 15.9%; under setting [4], 19.2%. Besides, the half-maximal activity concentration (AC50) reads like this: under setting [2], 4.47 µM [rising, partial curve, poor fit]; under setting [3], 4.47 µM [rising, partial curve].

Take `CC[C@]1(O)C[C@@H]2CN(CCc3c([nH]c4ccccc34)[C@](C(=O)OC)(c3cc4c(cc3OC)N(C=O)[C@H]3[C@@](O)(C(=O)OC)[C@H](C(=O)OC)[C@@]5(CC)C=CCN6CC[C@]43[C@H]65)C2)C1`: the max response was 57.9% under setting [1] and 77.2% under setting [4]. The half-maximal activity concentration (AC50) reads like this: under setting [2], 2 µM [rising, full curve, poor fit]; under setting [3], 7.94 µM [rising, partial curve, poor fit].

Turning to `COc1ccc(-n2c(=O)c(-c3cccs3)nc3cnc(N4CCN(C)CC4)nc32)cc1`, the max response under setting [1] turned out to be 20.7% and the max response under setting [4] is 17.9%. Further, the AC50 reads like this: under setting [2], 3.55 µM [rising, full curve, poor fit]; under setting [3], 3.16 µM [rising, single point].

Turning to `c1csc(CNc2ccnc(-c3ccc4c(c3)OCO4)n2)c1`, the max response by setting is: under setting [1], 18.2%; under setting [4], 23%. In addition, the AC50 was 0.355 µM [rising, full curve] under setting [2] and 0.355 µM [rising, full curve] under setting [3].

Take `COc1cc2c(cc1OC)C1C(=O)c3ccc4c(c3OC1CO2)C=CC(C)(C)O4` (stereo not drawn): the max response is -27.2% under setting [1] and -90.5% under setting [4]. Moreover, the half-maximal activity concentration (AC50) runs as follows: under setting [2], 0.178 µM [falling, full curve, poor fit]; under setting [3], 0.562 µM [falling, full curve].

For the compound `NC(=O)c1ccc[n+]([C@@H]2OC(COP(=O)([O-])OP(=O)(O)OCC3OC(n4cnc5c(N)ncnc54)C(O)C3O)C(O)C2O)c1` (stereo partly drawn), the max response runs as follows: under setting [1], 43.2%; under setting [4], 71.6%. Moreover, the AC50 reads like this: under setting [2], 14.1 µM [rising, partial curve, poor fit]; under setting [3], 20 µM [rising, partial curve, poor fit].

For `CN(Cc1ccco1)c1ncncc1-c1cccc(NS(C)(=O)=O)c1`, the max response is, setting by setting: under setting [1], 38.1%; under setting [4], 46.8%. Besides, the AC50 was 1.41 µM [rising, full curve] under setting [2] and 1.12 µM [rising, full curve] under setting [3].

`O=c1c(CCc2ccccc2)nc2cnc(N3CCOCC3)nc2n1Cc1ccc(F)cc1`: the max response by setting is: under setting [1], 35.1%; under setting [4], 41%. Also, the AC50 is, setting by setting: under setting [2], 0.141 µM [rising, full curve, poor fit]; under setting [3], 0.0631 µM [rising, full curve, poor fit].

On to `COc1ccccc1CNc1ccnc(-c2cccnc2)n1`, for which the max response stood at 20.8% under setting [1] and 27.3% under setting [4]. The half-maximal activity concentration (AC50) by setting is: under setting [2], 0.251 µM [rising, full curve, poor fit]; under setting [3], 0.251 µM [rising, full curve, poor fit].

In the case of `Cc1[nH]ccc2c1[nH]c1cc(=O)ccc12`, the max response reads like this: under setting [1], 111%; under setting [4], 142%. For the same compound, the AC50 is 0.794 µM [rising, full curve] under setting [2] and 0.891 µM [rising, full curve] under setting [3].

As to `C=C1C(=O)C23C(O)C1CCC2[C@]12COC3(O)C(O)C1C(C)(C)CC[C@H]2O` (stereo partly drawn), the max response by setting is: under setting [1], -47.6%; under setting [4], -111%. Besides, the AC50 was 6.31 µM [falling, partial curve] under setting [2] and 25.1 µM [falling, partial curve] under setting [3].

For `CN(C)C(=O)c1ccc(-c2cncnc2N(C)Cc2ccco2)cc1`, the max response by setting is: under setting [1], 40.7%; under setting [4], 48.1%. Moreover, the concentration at half-maximal activity (AC50) was 3.55 µM [rising, partial curve, poor fit] under setting [2] and 3.98 µM [rising, partial curve, poor fit] under setting [3].

Take `COc1ccc2c(c1OC)C(Cc1ccccc1)N1CCc3cc4c(cc3C1=C2)OCO4` (stereo not drawn): the max response under setting [1] stood at 41.2% and the max response under setting [4] was -84.3%. The AC50 reads like this: under setting [2], 1.12 µM [rising, full curve, poor fit]; under setting [3], 0.794 µM [rising, full curve, poor fit].

For the compound `N#C/C(=C\c1ccc(O)c(O)c1)C(=O)OCCc1cccs1`, the max response was found to be 34.1% under setting [1] and 36.1% under setting [4]. Further, the AC50 by setting is: under setting [2], 10 µM [rising, full curve, poor fit]; under setting [3], 7.94 µM [rising, full curve, poor fit].

As for `CCCN(CCC)C(=O)C(CCC(=O)O)NC(=O)c1ccccc1` (stereo not drawn), the max response was determined as 33.3% under setting [1] and 35.1% under setting [4]. The half-maximal activity concentration (AC50) was 7.08 µM [falling, full curve, poor fit] under setting [2] and 6.31 µM [falling, full curve, poor fit] under setting [3].

As for `COc1ccc(C(=O)C2C3C4COC(O4)C(=O)C3C3C=Cc4ccccc4N32)c(OC)c1` (stereo not drawn), the max response under setting [1] was found to be 75.8% and the max response under setting [4] came to 95.5%. The AC50 was 14.1 µM [rising, partial curve] under setting [2] and 12.6 µM [rising, partial curve] under setting [3].

Turning to `COc1cccc(-c2nc(NCc3cnc(C)cn3)c3ccccc3n2)c1`, the max response is, setting by setting: under setting [1], 27.7%; under setting [4], 40.3%. For the same compound, the AC50 was 0.501 µM [rising, partial curve, poor fit] under setting [2] and 2.24 µM [rising, full curve] under setting [3].

For `CN(C)c1ccc(-c2cncnc2Nc2ccc(F)cc2)cc1`, the max response under setting [1] was found to be 30.9% and the max response under setting [4] stood at 36.8%. The half-maximal activity concentration (AC50) is 1.26 µM [rising, full curve, poor fit] under setting [2] and 1 µM [rising, full curve] under setting [3].

On to `COc1ccccc1CNc1ncncc1-c1cccc(NS(C)(=O)=O)c1`, for which the max response runs as follows: under setting [1], 40.1%; under setting [4], 51.8%. Also, the half-maximal activity concentration (AC50) by setting is: under setting [2], 8.91 µM [rising, full curve]; under setting [3], 8.91 µM [rising, full curve].

For the compound `COc1cc([C@@H]2Oc3cc([C@H]4Oc5cc(O)cc(O)c5C(=O)[C@H]4O)ccc3O[C@H]2CO)ccc1O`, the max response by setting is: under setting [1], 65.6%; under setting [4], 97.1%. The half-maximal activity concentration (AC50) reads like this: under setting [2], 14.1 µM [rising, partial curve, poor fit]; under setting [3], 14.1 µM [rising, partial curve, poor fit].

In the case of `COCCn1c(=O)c(-c2cc(F)cc(F)c2)nc2cnc(Oc3ccc(OC)cc3)nc21`, the max response is, setting by setting: under setting [1], 18.7%; under setting [4], 18.6%. Moreover, the AC50 runs as follows: under setting [2], 0.0631 µM [rising, full curve, poor fit]; under setting [3], 0.0708 µM [rising, full curve].

For the compound `CSCC[C@H](C=O)NC(=O)[C@H](CC(C)C)NC(=O)[C@H](CC(C)C)NC(C)=O` (Ac-Leu-Leu-[dM]-aldehyde), the max response under setting [1] stood at 43.9% and the max response under setting [4] was 47.8%. For the same compound, the concentration at half-maximal activity (AC50) is 5.62 µM [rising, full curve, poor fit] under setting [2] and 14.1 µM [rising, single point] under setting [3].

For the compound `COCCn1c(=O)c(-c2ccc(Cl)cc2)nc2cnc(OC)nc21`, the max response by setting is: under setting [1], 31.5%; under setting [4], 46%. Also, the concentration at half-maximal activity (AC50) is, setting by setting: under setting [2], 0.158 µM [rising, full curve, poor fit]; under setting [3], 0.0794 µM [rising, full curve].

Take `CC(=O)NCCNc1ncnc2ccc(-c3ccc4c(c3)OCO4)cc12`: the max response was found to be 25.3% under setting [1] and 35% under setting [4]. For the same compound, the half-maximal activity concentration (AC50) reads like this: under setting [2], 0.00501 µM [rising, full curve, poor fit]; under setting [3], 0.00562 µM [rising, full curve, poor fit].

For the compound `COc1cc2cc(Oc3ccc4ccc(=O)oc4c3)c(=O)oc2cc1O`, the max response under setting [1] was determined as 86.5% and the max response under setting [4] worked out at 101%. Moreover, the AC50 under setting [2] was 35.5 µM [rising, partial curve] and the AC50 under setting [3] is 31.6 µM [rising, partial curve].

Consider `COc1ccccc1N1CCN(C[C@@H]2CN3C(=O)N(C)c4ccccc4C3=N2)CC1`, for which the max response under setting [1] amounted to 79.3% and the max response under setting [4] came out at 107%. The concentration at half-maximal activity (AC50) under setting [2] is 2.82 µM [rising, full curve] and the half-maximal activity concentration (AC50) under setting [3] is 2.82 µM [rising, full curve].

On to `CNc1nc(-c2cccnc2)nc2ccccc12`, for which the max response under setting [1] stood at 32.2% and the max response under setting [4] was found to be 31.8%. The concentration at half-maximal activity (AC50) was 0.316 µM [rising, full curve, poor fit] under setting [2] and 0.398 µM [rising, full curve, poor fit] under setting [3].

Regarding `COc1cccc(CNc2ccc3nc(-c4ccc(N)cc4)c(OC)n3n2)c1`, the max response runs as follows: under setting [1], 98.1%; under setting [4], 133%. Moreover, the AC50 was 0.794 µM [rising, full curve] under setting [2] and 0.891 µM [rising, full curve] under setting [3].

On to `COc1ccc(-c2nc3cnc(N(C)C)nc3n(CCC#N)c2=O)cc1`, for which the max response runs as follows: under setting [1], 35.3%; under setting [4], 44.5%. Moreover, the concentration at half-maximal activity (AC50) under setting [2] was 4.47 µM [rising, partial curve, poor fit] and the AC50 under setting [3] was 3.98 µM [rising, partial curve].

In the case of `Fc1cccc(/C=N\N=C/c2cccc(F)c2)c1`, the max response runs as follows: under setting [1], 90.3%; under setting [4], 121%. For the same compound, the AC50 is, setting by setting: under setting [2], 14.1 µM [rising, partial curve]; under setting [3], 14.1 µM [rising, partial curve].

Consider `COc1cccc(-c2nc(N(C)Cc3ccco3)c3ccccc3n2)c1`, for which the max response runs as follows: under setting [1], 18.5%; under setting [4], 25.1%. The AC50 is 0.447 µM [rising, full curve] under setting [2] and 0.708 µM [rising, full curve] under setting [3].

As for `CC(=O)Oc1ccc(/C=C/C(=O)CC2OC(Oc3cc(OC(C)=O)c4c(c3)O[C@@H](c3ccc(OC(C)=O)cc3)CC4=O)C(OC(C)=O)C(OC(C)=O)C2OC(C)=O)cc1` (stereo partly drawn), the max response runs as follows: under setting [1], 68.9%; under setting [4], 110%. In addition, the AC50 reads like this: under setting [2], 3.98 µM [rising, full curve]; under setting [3], 4.47 µM [rising, partial curve].

As for `CN1Cc2c(C(=O)OC(C)(C)C)ncn2-c2ccsc2C1=O`, the max response was 67.3% under setting [1] and 88% under setting [4]. Further, the AC50 by setting is: under setting [2], 31.6 µM [rising, partial curve, poor fit]; under setting [3], 31.6 µM [rising, partial curve].
